This is one part of the list.
Legend:
[1] = system: HSkMC (human skeletal muscle cells); experiment: cytotoxicity call (relative viability < 0.9); details: 10 µM
[2] = system: HepG2; experiment: cytotoxicity call (relative viability < 0.9); details: 10 µM
[3] = system: S. aureus RN4220; experiment: growth inhibition call (relative growth <= 0.2); details: 50 µM

| SMILES | cytotoxicity call [1] | cytotoxicity call [2] | growth inhibition call [3] |
| --- | --- | --- | --- |
| COc1ccc(S(=O)(=O)Nc2ccc3c(c2)C(=O)N([C@@H](C)CO)C[C@@H](C)[C@@H](CN(C)C(=O)NC2CCCCC2)OCCCC[C@@H](C)O3)cc1 | inactive | inactive | inactive |
| Nc1cnn(-c2ccccc2)c(=O)c1N | inactive | inactive | inactive |
| COc1ccc(-c2cc(=O)c3c(OC)c(OC)c(OC)cc3o2)cc1OC | inactive | inactive | inactive |
| COc1ccc(NC(=O)Nc2ccc3c(c2)C(=O)N([C@H](C)CO)C[C@@H](C)[C@H](CN(C)S(C)(=O)=O)O3)cc1 | inactive | active | inactive |
| COc1oc(C(=O)NC2CCCCC2)c(-c2ccc(Cl)cc2)c1S(=O)(=O)/C=C/c1ccccc1 | inactive | inactive | inactive |
| C[C@@H]1CN([C@@H](C)CO)S(=O)(=O)c2ccc(-c3cncnc3)cc2O[C@H]1CN(C)C(=O)Cc1ccccc1 | inactive | inactive | inactive |
| COc1cccc(S(=O)(=O)N(C)C[C@@H]2OCc3cnnn3CCCC(=O)N([C@H](C)CO)C[C@H]2C)c1 | inactive | inactive | inactive |
| CC(C)NC(=O)N(C)C[C@H]1OCCCC[C@@H](C)Oc2ccc(NC(=O)Nc3ccc(C(F)(F)F)cc3)cc2C(=O)N([C@@H](C)CO)C[C@H]1C | inactive | inactive | inactive |
| CCn1c(=O)cc(N2CCC(C)CC2)[nH]c1=O | inactive | inactive | inactive |
| O=C(C[C@@H]1CC[C@H]2[C@@H](COC[C@@H](O)CN2C(=O)c2ccccn2)O1)NC1CCC1 | inactive | inactive | inactive |
